In US20240034784A1 (published 2024):
Where a chain is given by its changes, count along the chain named.

B1: sdab-44-hIgG1Fc (Fc fusion)
chain: EVQLVESGGGLVQAGGSLRLSCAASGSIYRINTVAWYRQAPGKQRELVAEITSSGNRDYADSVKGRFTISRDNAKNTVYLQMNSLKPEDTAVYSCNAFIIPSVGLFTSRTYWGRGTQVTVSS[sequence of human IgG1 Fc with C220G (EU numbers) omitted]
B2: sdab-50-hIgG1Fc (Fc fusion)
chain: B1 chain with E1Q, Q3K, V5E, T33A, V34M, L47Y, S54T, R57T, K75E, L105M
B3: sdab-42-hIgG1Fc (Fc fusion)
chain: EVQLVESGGGLVQAGGSLRLACAASGRAIGTYDTNWYRQAPGQQREFVAFINYRGGGATYADSVKDRFTISRDNAANTVYLQMNSLKPEDTAIYLCNAHERFPMGRPPYDYWGQGTQVTVTS[sequence of human IgG1 Fc with C220G (EU numbers) omitted]
B4: sdab-43-hIgG1Fc (Fc fusion)
chain: EVQLVESGGGLVQAGGSLRLSCEASGPARNNYYMGWFRQAPGKERELVARINLSGSSIYYADSVKGRFTISRDNAKNTMSLQMNSLKPGDAARYYCHARDIVPGAQDYWGQGTQVTVSA[sequence of human IgG1 Fc with C220G (EU numbers) omitted]
B5: sdab-45-hIgG1Fc (Fc fusion)
chain: QVKLEESGGGLVQAGGSLRLSCAASGSISGINYMAWYRQAPGKQRDLVARAWTTGPPTYAESVKGRFTISRDNAKNTVYLQMNNLKPEDTGVYYCTANTLTSGYWGQGIQVTVSS[sequence of human IgG1 Fc with C220G (EU numbers) omitted]
B6: sdab-40-hIgG1Fc (Fc fusion)
chain: QVQLVESGGGLVQAGGSLRVSCAASGRTSSIYDMAWYRQAPGNEREFVARIVWRSGGSTSYADSVKGRFTISRNTAKNTVYLQMNSLKPEDTAMYYCRAFEFPLQIGGQNVYYWGQGTQVTVSS[sequence of human IgG1 Fc with C220G (EU numbers) omitted]

The binders below were run against T1, human Claudin 18.2 (human, UniProt P56856 1-261) (assay: FACS).

Binder | EC50 [nM]
B1 | 3.57
B2 | 4.25
B3 | 3.81
B4 | 3.7
B5 | 7.1
B6 | 4.31

Biological target: T1, human Claudin 18.2
Assay: FACS
Remark: another data set of the same source

Binder | EC50 [nM]
B1 | 1.82
B2 | 2.29
B3 | 1.5
B4 | 1.62
B5 | 2.5
B6 | 2.35
